Experimental data reported in the BET-seq Pho4 binding data (Le et al. 2018).
The list shows a part of the results. Values were computed here from the reads of four pooled replicates and scatter widely.

Biological target: T1, Pho4 (S. cerevisiae) (UniProt P07270)
T1 sequence: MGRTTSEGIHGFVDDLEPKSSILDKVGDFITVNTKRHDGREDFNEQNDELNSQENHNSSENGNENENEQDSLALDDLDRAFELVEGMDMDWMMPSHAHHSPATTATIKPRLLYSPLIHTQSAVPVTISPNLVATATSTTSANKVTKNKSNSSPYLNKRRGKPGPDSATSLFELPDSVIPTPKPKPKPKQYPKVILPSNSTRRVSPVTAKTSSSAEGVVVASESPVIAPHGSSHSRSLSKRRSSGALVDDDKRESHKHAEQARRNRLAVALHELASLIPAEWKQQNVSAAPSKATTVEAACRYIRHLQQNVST
Assay: relative binding free energy (BET-seq); higher = weaker binding
Conditions: reference: library average

| Sequence | relative binding free energy |
| --- | --- |
| AACTACACGTGGTGTG | -0.05 kcal/mol |
| GGCGTCACGTGGGCAT | -0.12 kcal/mol |
| GCTCTCACGTGGGGTA | 0.22 kcal/mol |
| TATTGCACGTGTACGA | 0.03 kcal/mol |
| TTGGTCACGTGATTGA | 0.27 kcal/mol |
| AAGGTCACGTGGGTAC | -0.11 kcal/mol |
| TGCTACACGTGGGGTA | -0.17 kcal/mol |
| GGGGTCACGTGCTAGG | 0.12 kcal/mol |
| GGGGGCACGTGTCGAG | -0.07 kcal/mol |
| TGGGCCACGTGAAGGG | 0.27 kcal/mol |
| GTGGACACGTGATTCA | 0.28 kcal/mol |
| GAGTTCACGTGTCTTT | 0.3 kcal/mol |
| CAGAGCACGTGGGGTT | -0.35 kcal/mol |
| GCCTTCACGTGGAGTT | 0.44 kcal/mol |
| AATTTCACGTGTGAAT | 0.25 kcal/mol |
| CTGATCACGTGGTGTT | -0.07 kcal/mol |
| CTTATCACGTGTGTTT | 0.1 kcal/mol |
| TAAGGCACGTGTGATG | -0.05 kcal/mol |
| GCCTTCACGTGTGGGT | 0.24 kcal/mol |
| TTGAGCACGTGGGCCT | -0.01 kcal/mol |
| TACGGCACGTGAGGGT | 0.1 kcal/mol |
| GTGAGCACGTGGGGCC | -0.13 kcal/mol |
| CGGTACACGTGTAAGT | 0.18 kcal/mol |

| Sequence | relative binding free energy |
| --- | --- |
| GTATTCACGTGATATT | 0.15 kcal/mol |
| CGGGTCACGTGATTAG | 0.17 kcal/mol |
| GGGCTCACGTGGTGCA | 0.21 kcal/mol |
| GTTCGCACGTGTTCGG | 0.13 kcal/mol |
| TTTTGCACGTGGTGTG | -0.05 kcal/mol |
| CGGCGCACGTGGTGGA | -0.11 kcal/mol |
| GTAGGCACGTGGGCTT | -0.21 kcal/mol |
| ATTTGCACGTGGAATT | -0.04 kcal/mol |
| ACTGTCACGTGGAGAT | 0.24 kcal/mol |
| TATAGCACGTGTTATG | 0 kcal/mol |
| TGGGACACGTGCGCGT | -0.1 kcal/mol |
| GTTATCACGTGATGTC | 0.52 kcal/mol |
| TGGGACACGTGATGAA | 0.12 kcal/mol |
| GGAGGCACGTGAAGCG | 0.05 kcal/mol |
| GTATGCACGTGTACGA | 0.14 kcal/mol |
| AGTATCACGTGATAAG | 0.29 kcal/mol |
| ATAGGCACGTGCCGGA | 0.03 kcal/mol |
| GTGTACACGTGAACTG | 0.22 kcal/mol |
| CTGGACACGTGGGCGT | -0.17 kcal/mol |
| ATTTGCACGTGCGTAA | -0.02 kcal/mol |
| GGGAGCACGTGTGGTC | -0.02 kcal/mol |
| ATGGACACGTGATTGA | 0.11 kcal/mol |
| TATAACACGTGGGAGG | -0.23 kcal/mol |

| Sequence | relative binding free energy |
| --- | --- |
| CGGTGCACGTGCTGGG | -0.01 kcal/mol |
| TACGTCACGTGGGAGT | -0.01 kcal/mol |
| ATGTGCACGTGTTGCT | -0.07 kcal/mol |
| TATGTCACGTGAGTCA | 0.29 kcal/mol |
| CTGAGCACGTGGGGAC | -0.1 kcal/mol |
| GGGTGCACGTGTGTCT | 0.05 kcal/mol |
| AGAGGCACGTGTGGGC | 0.03 kcal/mol |
| GAGCGCACGTGGAGTG | -0.14 kcal/mol |
| TTTAACACGTGGGACG | 0 kcal/mol |
| TGCTGCACGTGAGATG | 0.25 kcal/mol |
| CTGGTCACGTGTCAGG | 0.08 kcal/mol |
| TGAGGCACGTGGGCGG | -0.24 kcal/mol |
| AAAAACACGTGGTAGT | 0.11 kcal/mol |
| GTTAGCACGTGCGGCT | -0.18 kcal/mol |
| TAGAACACGTGGTTTT | -0.1 kcal/mol |
| GAGTTCACGTGATTTA | 0.39 kcal/mol |
| TTAGACACGTGACTGG | 0.21 kcal/mol |
| TTCGACACGTGGGGTG | -0.08 kcal/mol |
| TTTGACACGTGTTAGA | 0.01 kcal/mol |
| ATTTTCACGTGAAATT | 0.28 kcal/mol |
| AAGAGCACGTGGACGT | 0.01 kcal/mol |
| TAATTCACGTGAGCGT | 0.23 kcal/mol |
| CGGTTCACGTGGCGTT | 0.32 kcal/mol |

| Sequence | relative binding free energy |
| --- | --- |
| TGGTACACGTGGAGAT | 0.13 kcal/mol |
| AAGAGCACGTGTTGAA | 0.05 kcal/mol |
| GGTACCACGTGAAGGG | 0.22 kcal/mol |
| TCAGTCACGTGGGATT | 0.01 kcal/mol |
| ACTTTCACGTGGTTTT | 0.35 kcal/mol |
| CTATGCACGTGGTGGT | -0.17 kcal/mol |
| CATGTCACGTGTATAG | 0.12 kcal/mol |
| ATATTCACGTGGTCGG | 0.15 kcal/mol |
| ATGGTCACGTGGAGTG | 0.13 kcal/mol |
| GGGATCACGTGAAGCG | 0.31 kcal/mol |
| AGCTCCACGTGGGTGG | -0.22 kcal/mol |
| CAGCACACGTGTGGGG | 0.3 kcal/mol |
| TTGCACACGTGTTCGG | 0.01 kcal/mol |
| GATTTCACGTGATTAT | 0.35 kcal/mol |
| ATTCTCACGTGCAGGG | 0.37 kcal/mol |
| AGGTGCACGTGATATA | -0.07 kcal/mol |
| TACTGCACGTGGTGTG | -0.05 kcal/mol |
| CGTGACACGTGTTATG | 0 kcal/mol |
| GTGGGCACGTGTCAAG | -0.05 kcal/mol |
| TCGGTCACGTGCTAGT | 0.06 kcal/mol |
| GTGCTCACGTGAGGGA | 0.31 kcal/mol |
| TTGTACACGTGCAGGG | -0.03 kcal/mol |
| TTTGCCACGTGTTGGG | 0.02 kcal/mol |

| Sequence | relative binding free energy |
| --- | --- |
| GGAGGCACGTGCTGGA | -0.11 kcal/mol |
| TAGTGCACGTGGACTT | 0.04 kcal/mol |
| AGGTTCACGTGTGGAA | 0.37 kcal/mol |
| GGTACCACGTGGGTTT | 0.01 kcal/mol |
| ATTATCACGTGCGAGT | 0.06 kcal/mol |
| TTTCTCACGTGAGAAG | 0.49 kcal/mol |
| GGAGGCACGTGTTCAG | -0.21 kcal/mol |
| GCGGTCACGTGATCGG | 0.34 kcal/mol |
| AGGCGCACGTGAGTGT | 0.14 kcal/mol |
| TGAGCCACGTGTGAGG | -0.05 kcal/mol |
| AAGGGCACGTGGGCAA | -0.28 kcal/mol |
| AGGTTCACGTGGTGGT | 0.27 kcal/mol |
| AGAGGCACGTGTCGTT | -0.04 kcal/mol |
| GCACGCACGTGTTGGG | 0.07 kcal/mol |
| TGTTTCACGTGGGTAA | 0.26 kcal/mol |
| TTGTGCACGTGATGTA | 0.04 kcal/mol |
| TAAGGCACGTGTTTGC | -0.14 kcal/mol |
| TAATACACGTGATTTT | 0.12 kcal/mol |
| ATGCTCACGTGGAGGT | 0.11 kcal/mol |
| GGATTCACGTGTGCAG | 0.25 kcal/mol |
| ATCAGCACGTGTGTTA | 0.02 kcal/mol |
| CTCGGCACGTGATTGT | -0.01 kcal/mol |
| AATTTCACGTGGTGTC | 0.15 kcal/mol |
